The values below come from PMC12136788.

T1: UNK ZnF1-3 (human, UniProt Q9C0B0 31-174)
T1 sequence: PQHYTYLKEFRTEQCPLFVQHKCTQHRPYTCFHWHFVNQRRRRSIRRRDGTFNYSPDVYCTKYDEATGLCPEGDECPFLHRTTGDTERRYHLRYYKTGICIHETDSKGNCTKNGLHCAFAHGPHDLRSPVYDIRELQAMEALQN

B1: 43297161_43298123_788_CDS_ENSG00000112972_ENST00000433297|human|control|control (ssRNA)
RNA: GGGAGUUCUACAGUCCGACGAUCACUGAGGUAGCACUGUAUGGAGAGUUUUCCAUCUACUAUAGGAUAUUCAGAUAGCAUAUCAGGCUUGUAAAAAUCAUAGGCAUGUUGCAUAUGUGUCCCACGAAGCCCUCGUUCAAAAAUCAACAGAGGAUUGAGCAUCA
B2: chr1:163112212:163112213:-_ENSG00000143248_ENST00000313961|hu_hu|hu_hu_hu_mus_False|28_88 (ssRNA)
RNA: GGGAGUUCUACAGUCCGACGAUCUUUUAUUAUCAGUAAGAGUGAGUCACAUAGUACGCAAAGUAUUGGAUACAAUAAUCAGGAAACAAACACUAUUGGUCCAGAAUUUAAAAUAUAAUGAGCGAAGUGCUGGCACAGGACUUACAACAGAGGAUUGAGCAUCA
B3: chr3:119450855:119450856:-_ENSMUSG00000028134_ENSMUST00000029780|mus_hu|mus_mus_mus_hu_False|48_48 (ssRNA)
RNA: GGGAGUUCUACAGUCCGACGAUCUGUGGUGCCACUAAGAGGAGUAUUUGCUGUCUGGACAGCUGUCACAGCUUGAAGAACUGCCUGCGCACGUUGGUUUAAUGUAUUAUCUGUCUUUAGUUCUUUGUGAUUCGAGUACUGGAUCAACAGAGGAUUGAGCAUCA
B4: chr17:57814845:57814846:+_ENSG00000062716_ENST00000262291|hu_hu|FALSE|FALSE (ssRNA)
RNA: GGGAGUUCUACAGUCCGACGAUCCUGUUUCUCUAUACGUUGCACAUACUGUUGAUGCACUCCUUCAACAUAAUACGUAGCUAUAAGCACAGCAAGCAGCAGUAAAAAAGACACCACAAUGCUUUGACGAUGCCAUAAUUUUGACAACAGAGGAUUGAGCAUCA
B5: chr17:36096658:36096659:-_ENSMUSG00000038762_ENSMUST00000043757|mus_hu|FALSE|FALSE (ssRNA)
RNA: GGGAGUUCUACAGUCCGACGAUCUUGCUUCUCAUACUGUUUCAGCAGUUCUUUCUGCUUCUGCUGGUACAUCUUUUUGAAGGUCAUGUAAUUGCCCCUAUAGUAGUGGAGCCGCUGGGCAUCGAGGUGGAUGAUAUCAGUGCACAACAGAGGAUUGAGCAUCA
B6: chr5:128440902:128440903:+_ENSG00000066583_ENST00000173527|hu_mus|hu_hu_hu_mus_True|38_88 (ssRNA)
RNA: GGGAGUUCUACAGUCCGACGAUCUUGAACGGUGCUGCCAAGUCCUUUAGGGUAUUGUUCCGUUAUGAUAACUGGAAUCCCUAAGAUCCGAGCUCCUUGCAACAAUCUCUGUCCCACACUAAUGAUGUCCCCAAAGUAUUUGAUCAACAGAGGAUUGAGCAUCA
B7: chr5:128440902:128440903:+_ENSG00000066583_ENST00000173527|hu_mus|hu_hu_hu_mus_True|68_68 (ssRNA)
RNA: B6 RNA with A48G, U72A, A104G
B8: chr8:11702082:11702083:-_ENSG00000164733_ENST00000533455|hu_hu|motif|central (ssRNA)
RNA: GGGAGUUCUACAGUCCGACGAUCCGCUGUUCCACUGGCUCACCCACAUGAUUAGCAGAGUGCACGAAAAAAUAAAACUUCGGUUAAAGAAUCAUGCUGAGCACAAGAUCAGAGAGGUUGUGACAUUGCAAACUCGAUAGAUGCCAACAGAGGAUUGAGCAUCA
B9: chr1:220276048:220276049:+_ENSG00000067704_ENST00000302637|hu_hu|hu_hu_hu_mus_True|48_88 (ssRNA)
RNA: GGGAGUUCUACAGUCCGACGAUCGCAAAUUGCCUGGUUGGCGGGAAUCGUCCAAGGCUGGGUGGUCCAAACUAAAACGCUAACAGGAGAUGAACCAUCUGUAAGAGACUCCAACUUCGGAGGAGGUCUCAGGAGGGGGAAUCUCAACAGAGGAUUGAGCAUCA
B10: chr22:46712247:46712248:+_ENSG00000075218_ENST00000454366|hu_mus|FALSE|FALSE (ssRNA)
RNA: GGGAGUUCUACAGUCCGACGAUCGGUAGACACGGCCUCUGUCUUGCAGCUCAGAUAGGAGUCCCGUCGUUUUAUGCUGACAGUUUUAUUCAACUGAGGUGUCUCGGUGUCGGGGUCCAGCCUUGGUCCUCUUUGCUCUGGAGUCAACAGAGGAUUGAGCAUCA
B11: chr1:225977196:225977197:+_ENSG00000143742_ENST00000304786|hu_hu|FALSE|FALSE (ssRNA)
RNA: GGGAGUUCUACAGUCCGACGAUCAUUUCCAAAAGUAAAUAAAGGCUUUCUAACUGAAAACAUUUGCAUCCCUAGCUCUCUAAAGUAAUUAAAAAGAAAAUUACAAAAAAUGACCUCUAAGCUUCUGAACAGCCCACUUAGUUACAACAGAGGAUUGAGCAUCA
B12: chr14:100422286:100422287:-_ENSMUSG00000072294_ENSMUST00000097079|mus_mus|FALSE|FALSE (ssRNA)
RNA: GGGAGUUCUACAGUCCGACGAUCAGGGGAGGUCCUGGCUUUGUUGAUUGACAAGUCCACUGGCUCAGUUUGUGUCUGAAAGUGAUCUACAGGCAGUGAGUCCUCUGGGGGCUCCCCUUUCACAUUAUUUAGCAAGAGGGGGACCAACAGAGGAUUGAGCAUCA
B13: chr1:63024871:63024872:-_ENSG00000116641_ENST00000251157|hu_mus|motif|central (ssRNA)
RNA: GGGAGUUCUACAGUCCGACGAUCGUCCCCAAUUCGGACCGGGAACAUGUGUUCAUCCAGAGCAUUGACAAGAGCAAAGAAUUUGUCGGGAUAAGGGUCUUGUGUAUGAAUGGAUGAAACAGCAACAACUUCAACAUUAAAUACCAACAGAGGAUUGAGCAUCA
B14: chr3:16083472:16083473:+_ENSMUSG00000047213_ENSMUST00000108345|mus_mus|FALSE|FALSE (ssRNA)
RNA: GGGAGUUCUACAGUCCGACGAUCCGAACCAUUUUGUACUGAAACUUUAUUUCCUUGCCCUUUAGGUCUCUGAUCCACGCUAGUGGCUGACAUUCUUCACCGUAACCCGAGAGGAACCGCCGCCGCCGCCGCCGCUGCCUGGGCCAACAGAGGAUUGAGCAUCA
B15: 25040929_25041646_1894_CDS_ENSMUSG00000024163_ENSMUST00000117509|mouse|control|control (ssRNA)
RNA: GGGAGUUCUACAGUCCGACGAUCCACGUGUUCACGAACCUGGCGGUACUGCUCCCGCUUCUGCUCCCGCCGGGCAGAAGAGGUGCAGUCAUCAUCAGGGAAGAACUCCAGGGGCCUGCUGCCGGCUGAGAUCUGGCACAAAGCCAACAGAGGAUUGAGCAUCA
B16: 29625655_29628867_2727_3pUTR_ENSMUSG00000038084_ENSMUST00000160597|mouse|control|control (ssRNA)
RNA: GGGAGUUCUACAGUCCGACGAUCAAAAACCUCUGCGACAAAGGUUACAAUGAUUUAGAGCUGUUUUUAAGAAAUGUCUUCUAUAAACUUGAUGCCAAGUAUCCUUAAUCAAGCUUGGAUCGACUUCCACUCCUCGAGACUCCACAACAGAGGAUUGAGCAUCA
B17: chr6:87966076:87966077:+_ENSG00000188994_ENST00000369577|hu_hu|FALSE|FALSE (ssRNA)
RNA: GGGAGUUCUACAGUCCGACGAUCUAGAGGAGUAGUAGCAGGGUUUUCCAAACCAUUUGACAAUGGUCCAUUAGCUUGCCUGAGCUCAGAGGCAGAAAUCUGGUCUUGUUUGGUCACAGCUGAUUCUGCUUUGCUUUUAUCCCACAACAGAGGAUUGAGCAUCA
B18: chr10:20042908:20042909:+_ENSMUSG00000037608_ENSMUST00000043881|mus_mus|motif|central (ssRNA)
RNA: GGGAGUUCUACAGUCCGACGAUCGGACCGUGACCGACCUCGUCUAGGACUCCUAGAGUGCCUUCUAUUCCAGACAGGUCGGUAGCCACCUCGAUGGUAUCUCCCUCCUCCUCCUUGAUAAUACCCUCUACCCCUUCCUCUGUACAACAGAGGAUUGAGCAUCA
B19: chr10:57235669:57235670:-_ENSMUSG00000019877_ENSMUST00000020027|mus_mus|motif|central (ssRNA)
RNA: GGGAGUUCUACAGUCCGACGAUCUUCAGAAUUGUGAAGCAGUAUUAACACAGAGUAAGGCUGGAACAUGAAGAUGAACUGCGGUAGUACAUUUGCACAAUAAAUACUUUUAAAGACACAUGUAGUUCUUUAAAAGCUAGAUACCAACAGAGGAUUGAGCAUCA
B20: chr4:48850422:48850423:+_ENSG00000109180_ENST00000264312|hu_mus|FALSE|FALSE (ssRNA)
RNA: GGGAGUUCUACAGUCCGACGAUCAGCGAAUAGAAGUUUAGGAAUUGAACCAUAUUUUGGAUGACUUGACAGGAUUCCUUUACUAAUUAAUCCUUGAGUAAUCAGCAUACUUGUGGCAGCCAACGGCACAGAUCUGAACCAGAACAACAGAGGAUUGAGCAUCA
B21: chr20:52835626:52835627:+_ENSG00000101132_ENST00000441080|hu_hu|motif|central (ssRNA)
RNA: GGGAGUUCUACAGUCCGACGAUCAGCUUCAAGGUUUAUGUUGCUCCCGAAUUUUGCAUACAACUGAACUUUCAAAUCUGCGGACACUCGCUGAAUUGAUUCCACUCUGGAUUCUAAGGCGUCAAUUUCUUCUUGCAAAUUUUUCAACAGAGGAUUGAGCAUCA
B22: 29380636_29382213_4059_CDS_ENSMUSG00000032740_ENSMUST00000040182|mouse|control|control (ssRNA)
RNA: GGGAGUUCUACAGUCCGACGAUCCAUUAUAGAUUCAUUUUCAUUUUCUAAGGAAGACUGCUGGAUUAGAAGCUGUGCAUUCUGGUUCAUAAGUGAAGUACUUUGUGAAUUAAGGGUAGAAUUUUCAACCUGAAGCUUGGCAUUCAACAGAGGAUUGAGCAUCA

Positions count from the first letter of the chain named. Some of the results follow.

This assay concerns the target T1, UNK ZnF1-3. Put plainly: nsRBNS (natural sequence RNA bind-n-seq); RBNS binding buffer (assumed for nsRBNS): 25 mM Tris pH 7.5, 150 mM KCl, 3 mM MgCl2, 0.01% Triton X-100, 500 ug/ml BSA, 20 U/ml SUPERase-In, 4 C; UNK is unkempt and MSI1 is Musashi-1; names of the RNAs are library labels; protein concentration not given here; high values mean tight binding.
Turning to B1, the binding signal stood at 1 enrichment R. The value for B2 was 2.29 enrichment R; that for B3 was 0.746 enrichment R; that for B4 was 1.01 enrichment R.

Consider B5, for which the binding signal came to 0.56 enrichment R. The value for B6 was 0.769 enrichment R. The figure for B7 is 0.828 enrichment R; for B8 it is 1.87 enrichment R; for B9 it is 1.31 enrichment R. With B10, the binding signal was determined as 0.585 enrichment R. Molecule B11 displayed a binding signal of 1.37 enrichment R. The value for B12 was 0.761 enrichment R; that for B13 was 1.95 enrichment R.

The molecule B14 came in with a binding signal of 0.935 enrichment R. Consider B15, for which the binding signal stood at 0.671 enrichment R.

Regarding B16, the binding signal came out at 0.802 enrichment R. The figure for B17 is 0.698 enrichment R.

As to B18, the binding signal was found to be 0.72 enrichment R.

As for B19, the binding signal was found to be 1.13 enrichment R. The value for B20 was 1.59 enrichment R; that for B21 was 1.12 enrichment R; that for B22 was 1.01 enrichment R.
